Results as given in PubChem BioAssay AID651820 (National Center for Advancing Translational Sciences (NCATS), 2012).
The campaign covered roughly 340,000 compounds. About 12,000 (3.5%) were called active. Inconclusive means that the source gave no clear call. Such entries were picked first, then a sample of the others. Calls come from the whole dose curve; as a rule, active = well fitted inhibition curve with a large enough effect; inconclusive = small, poorly fitted or top-dose-only effect, or another doubt; inactive = no such curve, though single readings can be large or run the other way. Potencies of inconclusive entries are left out as doubtful fits.

Experiment: qHTS Assay for Inhibitors of Hepatitis C Virus (HCV)
Conditions: Huh7.5.1 HCVcc-Cre (HCVcc is cell-culture hepatitis C virus) infection, luciferase reporter, 44 h; activity change, negative = inhibition: at 41.8 µM (top of the series)
Method in brief: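 Cells (1,000/well) were plated 4 h before compound, then infected with HCVcc-Cre virus (~0.5 moi). After 44 h further culture, infection was read as luciferase luminescence following a 15 min substrate incubation at room temperature.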
% is set by controls: 0 for no effect and ±100 for the full control effect; potency is the fitted concentration of half-maximal effect; tags give direction and shape of the fitted curve.

**Q.** For N#Cc1c(NC(=O)CCC(=O)O)sc2c1CCCC2, which “activity change, negative = inhibition” value is on record?
**A.** Its value is inactive: 13%.

**Q.** For COc1ccc2c(c1)OCC(O)(c1ccccc1)C2=O (centres undefined), which “activity change, negative = inhibition” value is on record?
**A.** Its value is inactive: 7.38%.

**Q.** Which Potency does the source give for CN(C(=O)COC(=O)c1cc([N+](=O)[O-])ccc1Cl)c1ccccc1 here?
**A.** The Potency was inconclusive [inhibitor, single point].

**Q.** For CCNC(=O)c1ccc(CSc2nc3ccccc3s2)cc1, which Potency is on record?
**A.** The Potency was inconclusive [inhibitor, single point].

**Q.** For O=C(CN1C(=O)CCC1=O)Nc1cccc(NC(=O)CN2C(=O)CCC2=O)c1, which “activity change, negative = inhibition” value is on record?
**A.** Its value is inactive: -0.123%.

**Q.** For Cc1c(CCOC(=O)c2ccccc2)sc[n+]1CC(=O)c1ccc(Br)cc1, which Potency is on record?
**A.** The Potency was inconclusive [inhibitor, partial curve].

**Q.** Which Potency does the source give for CCCC1=[N+](CC(=O)c2ccccc2)CCn2c(C)ccc21 here?
**A.** The Potency was inconclusive [inhibitor, full curve].

**Q.** With Cc1ccc(NS(=O)(=O)c2cc3c4c(cccc4c2)C(=O)NC3=O)cc1C as the molecule, how does the Potency read?
**A.** Its Potency is inconclusive [inhibitor, partial curve].

**Q.** Which Potency does the source give for COc1cc(OC)cc(C(=O)NCC(=O)NC(C)CCc2ccccc2)c1 (centres undefined) here?
**A.** The Potency was inconclusive [inhibitor, single point].

**Q.** With CCOC(=O)Cc1nn(Cc2nc(-c3ccc(C)cc3)cs2)c(=O)c2ccccc12 as the molecule, how does the Potency read?
**A.** The Potency was inconclusive [inhibitor, partial curve].

**Q.** With COc1cc(O)c(C(CCN2CCCC2)c2cc(OC)c(OC)c(OC)c2)c(OC)c1 (centres undefined) as the molecule, how does the “activity change, negative = inhibition” value read?
**A.** Its value is inactive: 2.58%.

**Q.** With COc1cccc(CNC(=O)COc2cccc3c2OC(C)(C)C3)c1 as the molecule, how does the Potency read?
**A.** The Potency was inconclusive [inhibitor, single point].

**Q.** With C=CCN(c1ccccc1)S(=O)(=O)c1cccc(C(=O)NCC(c2ccccc2OC)N2CCCC2)c1 (centres undefined) as the molecule, how does the Potency read?
**A.** The Potency was inconclusive [inhibitor, partial curve].

**Q.** Which “activity change, negative = inhibition” value does the source give for COCCN(C(=O)Nc1ccccc1)c1ccccc1 here?
**A.** Its value is inactive: -3.8%.

**Q.** With Cc1ccccc1OCC(=O)N/N=C1\CC(=O)CC(C)(C)C1 as the molecule, how does the “activity change, negative = inhibition” value read?
**A.** Its value is inactive: -4.92%.

**Q.** For Cc1ccc(N2C(=O)N(CC(=O)Nc3ccc(C)cc3Cl)C(=O)C2C)cc1 (centres undefined), which Potency is on record?
**A.** Its Potency is inconclusive [inhibitor, partial curve, poor fit].

**Q.** Which “activity change, negative = inhibition” value does the source give for Cc1ccc(COc2cccc(/C=N/NC(=O)c3nnn(-c4nonc4N)c3C)c2)cc1 here?
**A.** Its value is inactive: -0.131%.

**Q.** Which Potency does the source give for O=C1NCCN(Cc2ccc(F)cc2)C1CC(=O)N1CC=C(c2ccccc2)CC1 (centres undefined) here?
**A.** The Potency was inconclusive [inhibitor, single point].

**Q.** With CC(C)CCN(C(=O)CNC(=O)c1cccs1)C(C(=O)NC1CCCCC1)c1cccnc1 (centres undefined) as the molecule, how does the “activity change, negative = inhibition” value read?
**A.** The value was inactive: -8.14%.

**Q.** Which “activity change, negative = inhibition” value does the source give for CC(=O)Nc1nnc(COc2ccccc2)s1 here?
**A.** Its value is inactive: 2.01%.

**Q.** With COC(=O)N/N=C/c1c(C)c(C(=O)c2ccc(F)cc2)n2ccccc12 as the molecule, how does the Potency read?
**A.** Its Potency is inconclusive [inhibitor, partial curve, poor fit].

**Q.** Which Potency does the source give for COc1ccc(OC)c(/C=C/C(=O)N2C(=O)c3cccc(N)c3C2=O)c1 here?
**A.** The Potency was inconclusive [inhibitor, single point].

**Q.** For C=C1c2nc3ccccc3n2C=C(c2ccc(C)cc2)N1c1ccccc1, which Potency is on record?
**A.** Its Potency is inconclusive [inhibitor, single point].

**Q.** With CCCc1[nH]nc2c1C1(C(=O)N(Cc3ccccc3)c3ccccc31)C(C(=O)OC)=C(N)O2 (centres undefined) as the molecule, how does the Potency read?
**A.** The Potency was inconclusive [inhibitor, single point].

**Q.** For COC(=O)N(NC(=O)C(O)(CCC(C)C)CCC(C)C)c1ccccc1, which “activity change, negative = inhibition” value is on record?
**A.** The value was inactive: -3.11%.

**Q.** Which Potency does the source give for CC(=O)Nc1ccc(-n2nnnc2SCC(=O)Nc2cccc(NC(=O)c3ccco3)c2)cc1 here?
**A.** The Potency was inconclusive [inhibitor, partial curve].

**Q.** Which Potency does the source give for O=C(Nc1cccc(Cn2cccn2)c1)c1cc2c(s1)CCCC2 here?
**A.** The Potency was inconclusive [inhibitor, partial curve].

**Q.** For CCOC(=O)c1ccc(NC(=O)c2cc3c(C)nn(-c4ccccc4Cl)c3s2)s1, which Potency is on record?
**A.** Its Potency is inconclusive [inhibitor, single point].

**Q.** Which Potency does the source give for O=C(NNc1cccc(Cl)n1)Nc1ccccc1 here?
**A.** The Potency was inconclusive [inhibitor, single point].

**Q.** With CCOc1ncccc1C(=O)OCC(=O)Nc1ccc(S(=O)(=O)N2CCCC2)cc1 as the molecule, how does the Potency read?
**A.** The Potency was inconclusive [inhibitor, partial curve].

**Q.** Which “activity change, negative = inhibition” value does the source give for O=C(CSc1ccc([N+](=O)[O-])cc1)c1ccccc1 here?
**A.** Its value is inactive: 33.3%.

**Q.** With Cn1cc(C(=O)N/N=C/C2=C(N3CCOCC3)C(=C\c3ccccc3)/CC2)ccc1=O as the molecule, how does the Potency read?
**A.** The Potency was inconclusive [inhibitor, partial curve].

**Q.** For CN(C)S(=O)(=O)Oc1cccc(C(=O)Nc2ccc(Cl)c(Cl)c2)c1, which Potency is on record?
**A.** The Potency was inconclusive [inhibitor, partial curve, poor fit].

**Q.** With Cc1ccc(-c2csc(NC(=O)Cn3cnc4c3c(=O)n(C)c(=O)n4C)n2)cc1C as the molecule, how does the Potency read?
**A.** Its Potency is inconclusive [inhibitor, partial curve].

**Q.** Which Potency does the source give for O=C(c1cnn2c1NC(c1ccco1)CC2C(F)(F)F)N1CCN(c2cccc(Cl)c2)CC1 (centres undefined) here?
**A.** Its Potency is active: 10 µM.

**Q.** With Cc1cc(OCCOCCNC(C)C)cc(C)c1Cl as the molecule, how does the Potency read?
**A.** Its Potency is inconclusive [inhibitor, single point].

**Q.** With O=C1C2CC=C(Cl)CC2C(=O)N1CCC[n+]1cccc2ccccc21 (centres undefined) as the molecule, how does the “activity change, negative = inhibition” value read?
**A.** The value was inactive: -6.64%.

**Q.** With CCn1c(=O)n(CC)c2cc(NS(=O)(=O)c3ccccc3)ccc21 as the molecule, how does the “activity change, negative = inhibition” value read?
**A.** Its value is inactive: 7.92%.

**Q.** Which Potency does the source give for CCOc1ccc(/C=C/C(=O)OCC(=O)NCCc2ccc(OCC)c(OCC)c2)cc1OC here?
**A.** Its Potency is active: 7.94 µM.

**Q.** Which “activity change, negative = inhibition” value does the source give for CN(Cc1ccccc1)C(=S)NC(=O)c1ccccc1 here?
**A.** The value was inactive: 7.61%.

**Q.** For COc1ccc(/C=N/NC(=O)Cc2csc(Nc3cccc(C(F)(F)F)c3)n2)cc1C, which Potency is on record?
**A.** Its Potency is inconclusive [inhibitor, partial curve].

**Q.** With CC(=O)N1CCN(S(=O)(=O)c2cccc(C(=O)Nc3ccc(OC(F)F)cc3)c2)CC1 as the molecule, how does the Potency read?
**A.** Its Potency is inconclusive [inhibitor, single point].

**Q.** With COc1ccc(/C(C)=N/NC(=O)c2nnn(-c3nonc3N)c2-c2cccs2)cc1 as the molecule, how does the “activity change, negative = inhibition” value read?
**A.** Its value is inactive: 1.92%.

**Q.** For Oc1ccc(C[C@H]2CNC(=S)N2CC2CCCN2C[C@H](Cc2ccc(O)cc2)N2C[C@H](Cc3ccc(O)cc3)N(CC3CCCCCC3)C2=S)cc1 (some centres undefined), which Potency is on record?
**A.** Its Potency is inconclusive [inhibitor, partial curve].
